Measured values published in publication PMC4336329 (PLoS ONE, 2015).
Screen size: about 310,000 compounds; about 14,000 (4.5%) showed an effect of 50% or more. Effects have a minus sign here. The list shows a part of the results.

Target: human ether-à-go-go-related gene (hERG) potassium channel (human, UniProt Q12809)
Test: primary screen, population patch clamp on CHO cells stably expressing hERG
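Further: peak tail current of the secondary pulse compared with the same well before compound.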

human ether-à-go-go-related gene (hERG) potassium channel, sequence (Q12809 whole entry, looked up): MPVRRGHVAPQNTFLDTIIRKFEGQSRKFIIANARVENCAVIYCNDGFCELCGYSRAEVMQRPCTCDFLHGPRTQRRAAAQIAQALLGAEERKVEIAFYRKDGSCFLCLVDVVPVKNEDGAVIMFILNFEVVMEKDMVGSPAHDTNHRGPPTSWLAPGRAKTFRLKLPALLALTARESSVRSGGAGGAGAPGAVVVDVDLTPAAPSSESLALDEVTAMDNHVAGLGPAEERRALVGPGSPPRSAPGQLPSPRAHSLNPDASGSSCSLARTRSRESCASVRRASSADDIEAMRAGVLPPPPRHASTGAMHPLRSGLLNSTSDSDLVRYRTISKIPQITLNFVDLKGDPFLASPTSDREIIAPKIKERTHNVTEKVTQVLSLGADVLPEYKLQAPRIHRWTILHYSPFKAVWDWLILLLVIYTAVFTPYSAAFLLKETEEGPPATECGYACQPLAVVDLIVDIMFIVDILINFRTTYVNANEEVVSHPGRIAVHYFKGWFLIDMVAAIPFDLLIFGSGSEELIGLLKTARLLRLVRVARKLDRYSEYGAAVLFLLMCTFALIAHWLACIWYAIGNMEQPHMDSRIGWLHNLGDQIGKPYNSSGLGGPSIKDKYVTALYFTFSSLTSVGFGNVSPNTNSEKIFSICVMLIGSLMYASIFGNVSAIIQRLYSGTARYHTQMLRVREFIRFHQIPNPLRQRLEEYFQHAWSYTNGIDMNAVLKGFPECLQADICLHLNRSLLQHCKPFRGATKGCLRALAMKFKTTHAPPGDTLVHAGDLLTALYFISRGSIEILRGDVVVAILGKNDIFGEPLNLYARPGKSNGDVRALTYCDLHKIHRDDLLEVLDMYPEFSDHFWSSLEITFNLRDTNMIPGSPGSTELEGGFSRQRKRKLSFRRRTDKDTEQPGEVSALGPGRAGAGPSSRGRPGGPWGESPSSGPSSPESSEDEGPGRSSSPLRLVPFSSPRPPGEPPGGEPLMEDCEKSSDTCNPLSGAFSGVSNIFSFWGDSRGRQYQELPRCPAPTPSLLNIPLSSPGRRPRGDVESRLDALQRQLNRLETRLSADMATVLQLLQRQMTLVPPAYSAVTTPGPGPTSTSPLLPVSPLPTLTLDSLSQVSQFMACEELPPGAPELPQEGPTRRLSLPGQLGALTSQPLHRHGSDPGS

Row | SMILES | hERG current change (%, negative = inhibition) at 10uM
1 | CC1CCCC(NC(=O)COC(=O)c2ccc(Cl)nc2)C1C (stereo not drawn) | 3.91%
2 | O=c1c2c(nc3n1CCCCC3)sc1c(O)c(Br)ccc12 | -15.5%
3 | CC1(O)N(CCC(=O)Nc2cccc(F)c2)C(=O)OC12CCCCC2 (stereo not drawn) | 18.5%
4 | CCOc1ccc(N2Cc3ccccc3C2)cc1 | -2.48%
5 | COc1ccccc1C1=CC(=O)CCC1 | 10.5%
6 | CC(C)COP(=O)(c1ccc(N(C)C)cc1)C(O)c1ccccc1F (stereo not drawn) | -16.9%
7 | Cc1cc(OCC(=O)NCC2CCC(C(=O)O)CC2)c2c(C)cc(=O)oc2c1 (stereo not drawn) | 6.71%
8 | CCN(CC)Cc1ccccc1Sc1ccccc1.O=C(O)/C=C\C(=O)O | -53.3%
9 | O=C(CN1C(=O)C2CC=CCC2C1=O)Nc1nnc(SCc2ccc(Cl)cc2)s1 (stereo not drawn) | -7.7%
10 | CCC1CN(S(=O)(=O)c2ccc3c(c2)NC(=O)CC(=O)N3)c2cc(Cl)ccc2O1 (stereo not drawn) | 9.44%
11 | OCCNc1nc(Nc2ccccc2Oc2ccccc2)nc(N2CCCC2)n1 | 3.68%
12 | CN(CC1COCCO1)C(=O)c1cc(COc2c(F)cccc2F)on1 (stereo not drawn) | 6.62%
13 | Cn1c(SCc2nc3ccccc3s2)nnc1-c1ccc2c(c1)OCO2 | -29.7%
14 | CCOC(=O)c1csc(NC(=O)Nc2cccc(Cl)c2)n1 | 23%
15 | CC(=O)NN1C(=O)/C(=C\c2ccc(Cl)cc2)SC1=S | 0.662%
16 | N#Cc1ccc(OCC(=O)Nc2ccncc2)cc1 | 18.1%
17 | CCOC(=O)c1c(C)[nH]c(C(=O)COC(=O)c2cc(C)oc2C)c1C | -23.1%
18 | COc1ccc(N2CC(C(=O)N3CCOCC3)CC2=O)cc1 (stereo not drawn) | 18.3%
19 | CCN(CCO)Cc1cc(=O)oc2cc3c(cc12)CCC3 | 10.4%
20 | O=C(N1CCN(c2ncccn2)CC1)C12CC3CC(CC(C3)C1)C2 | 6.88%
21 | Cc1ccc(-c2nnc(SCC(N)=O)n2C)cc1 | -0.685%
22 | CCC1CCCCN1CC(=O)c1c(C)[nH]c2ccccc12 (stereo not drawn) | -27.4%
23 | CCCC1=NN(C(=O)C(=O)Nc2ccc(Br)cc2)C(O)(C(F)(F)F)C1 (stereo not drawn) | 15.3%

Row | SMILES | hERG current change (%, negative = inhibition) at 10uM
24 | O=C(Nc1nnc(-c2ccco2)o1)c1ccc(S(=O)(=O)N2CCCC2)cc1 | 19.2%
25 | COC(=O)C1=C(c2ccc(F)cc2OCc2ccccc2)C[C@@H]2CC[C@H]1N2C(=O)NCc1ccccc1C(F)(F)F | 20.9%
26 | CCn1c(NCCO)nc2c(c1=O)C(C)(CC)Cc1ccccc1-2 (stereo not drawn) | 8.74%
27 | CC(C)(C)c1ccc(C(=O)NC(=S)Nc2nc3c(s2)CCCC3)cc1 | 27.6%
28 | CC(=O)c1ccc(S(=O)(=O)Nc2ccc(C(=O)N(C)CC(=O)Nc3cccc(C)c3C)cc2)cc1 | 14.5%
29 | C=C(C)c1cccc(C(C)(C)NC(=O)Nc2cc(C)ccc2OC)c1 | 3.48%
30 | CCCCC(=O)NC(=S)Nc1cc(C(=O)O)ccc1OC | 20.3%
31 | Cc1[nH]n(-c2ccccc2)c(=O)c1C(c1cccc([N+](=O)[O-])c1)c1c(C)[nH]n(-c2ccccc2)c1=O | 15.1%
32 | O=C1CC2(CCN(C(=O)c3ccc(F)cc3)CC2)Oc2ccccc21 | -76%
33 | COC(=O)c1cc(S(=O)(=O)N2CCCCCC2)cn1C | -10.5%
34 | CC(C)NC(=O)COc1coc(CN2CCN(C(=O)c3ccco3)CC2)cc1=O | 10.3%
35 | Cc1ccc(C(=O)CC(C(=O)O)n2ccc(C)n2)cc1 (stereo not drawn) | 6.03%
36 | CC(=O)NC(Cc1cccc(C)c1)C(=O)NC1CCN(c2ncccc2[N+](=O)[O-])CC1 (stereo not drawn) | 0.362%
37 | N#Cc1cc2c(nc1SCC(=O)Nc1sc3c(c1C#N)CCC3)CCCCC2 | -10%
38 | CCCn1c(=O)n(N)c2ccccc21 | -12.2%
39 | O=C(c1cnc2sccn2c1=O)N1CCN(c2ccccc2Cl)CC1 | -2.33%
40 | CCc1cc(/C(Cc2csc(C)n2)=N/O)c(O)cc1O | 1.05%
41 | COc1ccc2ccccc2c1CNCCc1ccccc1.Cl | -53.1%
42 | O=C(NCCCNC(=O)NC1CCCCC1)NC1CCCCC1 | 21.4%
43 | Cc1n[nH]c(=O)nc1NC1CCCCC1 | 11.5%
44 | O=C(Nc1nc2ccccc2[nH]1)c1ccc([N+](=O)[O-])cc1 | 41.2%
45 | Cc1ccccc1N1CCN(C2CCCN(C(=O)COc3ccccc3)C2)CC1 (stereo not drawn) | -62.7%
46 | O=[N+]([O-])c1cccc(S(=O)(=O)N2CCN(c3ccccn3)CC2)c1 | 4.57%

Row | SMILES | hERG current change (%, negative = inhibition) at 10uM
47 | COc1ccccc1NC(=O)c1ccc(C)s1 | 8.87%
48 | COc1ccc(-n2ncc3c(SCC(=O)N4CCN(c5ccccc5OC)CC4)ncnc32)cc1 | -6.29%
49 | CCn1c(=O)cc(OCC(=O)N2CCN(c3ccc(F)cc3)CC2)c2ccccc21 | -69.8%
50 | Cn1nccc1C(=O)NC1CC(C)(C)Cc2c1cnn2-c1ccc(F)cc1 (stereo not drawn) | -61.4%
51 | O=C(COC(=O)c1ccncc1)Nc1cc(Cl)c(Cl)cc1Cl | -2.04%
52 | Fc1ccc(-c2csc(-c3ccncc3)n2)cc1 | -4.19%
53 | CC(=O)O[C@H]1C2OC(=O)C(C)=C2[C@@H]2OC(=O)[C@]3(CCC4OC41C)OC23 (stereo partly drawn) | 18.2%
54 | COC(=O)c1sccc1NC(=O)c1ccc(C)o1 | 9.34%
55 | CN(C)S(=O)(=O)NCC1CCCN(Cc2ccc(-c3ccccc3)cc2)C1 (stereo not drawn) | -50.8%
56 | Cc1sc(NC(=O)CSc2nnc(-c3ccc(F)cc3)o2)c(C#N)c1C | 10%
57 | Cc1ccc(CNc2ccc(Cl)cc2[N+](=O)[O-])cc1 | -4.23%
58 | Cc1ccc(-c2nc3ncccc3o2)cc1NC(=O)C(C)(C)C | 16.6%
59 | Cc1ccc(-c2noc(C3CCN(S(=O)(=O)c4ccc5c(c4)OCCO5)CC3)n2)o1 | 4.19%
60 | CCN1CCN(c2ccc(NC(=O)c3cccc(N4CCCC4=O)c3)cc2)CC1 | 23.9%
61 | O=C(/C=C/c1cccs1)Nc1nncs1 | 18%
62 | O=c1cc(NC2CCCCC2)[nH]c(=O)[nH]1 | 7.02%
63 | CCCn1ncc(CN2CCC(n3nccc3NC(=O)CCc3ccccc3)CC2)c1C | -26.2%
64 | O=C(Nc1nc2ccc(SC(F)F)cc2s1)c1ccc(NS(=O)(=O)c2ccc(F)c(F)c2)cc1 | -8.03%
65 | Cn1cnnc1SCC(=O)Nc1ccc(OC(F)F)cc1 | 8.89%
66 | CCC1Oc2ccccc2N(CC(=O)NCCCN2CCCCC2CC)C1=O (stereo not drawn) | -3.34%
67 | O=C(C1CCC(CNc2c(N3CCOCC3)c(=O)c2=O)CC1)N1CCN(c2ccccc2)CC1 (stereo not drawn) | 23.8%
68 | CCN1CCN(CCOCCOc2ccccc2)CC1.O=C(O)C(=O)O | 10.8%
69 | OCC1(CCc2ccccc2)CCCN(CCCC(F)(F)F)C1 (stereo not drawn) | -51.7%

Row | SMILES | hERG current change (%, negative = inhibition) at 10uM
70 | CC1CC(C(F)(F)C(F)(F)F)n2nc(C(=O)O)cc2N1 (stereo not drawn) | -1.95%
71 | Cc1nc2ccccc2n1C(C)c1ccccc1 (stereo not drawn) | 7.77%
72 | C=CCc1cccc2cc(C(=O)N3CCOCC3)c(=O)oc12 | -1.37%
73 | OCC[C@@H]1C[C@H](O)[C@@H](O)[C@@]2(CCCCO2)O1 | 4.62%
74 | CCN(CC)S(=O)(=O)c1ccc2c(c1)N(CC(=O)N(CCc1ccncc1)C(C)C)C(=O)CO2 | -53.3%
75 | Brc1ccc2c(c1)C(c1cccnc1)=NNC(c1cccs1)=N2 | -43.6%
76 | O=C(/C=C/c1ccc(O)c(O)c1)c1ccccc1O | 7.58%
77 | O=C(Cn1cnc2scc(-c3ccc(Cl)cc3)c2c1=O)N1CCOCC1 | -8.35%
78 | CCOc1ccccc1NC(=O)NNS(=O)(=O)c1ccc([N+](=O)[O-])cc1 | 5.17%
79 | CCOC(=O)N1CCN(CC(O)COc2c(C)cccc2C)CC1.Cl (stereo not drawn) | -15.7%
80 | O=C(Nc1cccc(Cl)c1N1CCCC1)c1cc2ccccc2o1 | 11.9%
81 | CN1CCN(C2=NC(=O)/C(=C/c3cn[nH]c3-c3ccccc3)S2)CC1 | 12.7%
82 | COc1ccc(C2NC(=S)NC3=C2CCc2cc(OC)ccc23)cc1 (stereo not drawn) | 19.9%
83 | NS(=O)(=O)c1ccc(CNC(=O)C(c2ccccc2)c2ccccc2)cc1 | 2.89%
84 | CN1/C(=C\C=C2/SC(=S)N(CC(=O)O)C2=O)C(C)(C)c2ccccc21 | 15.1%
85 | COc1cccc(-n2nc(C(=O)N3CCC4(CC3)OCCO4)c3ccccc3c2=O)c1 | -7.14%
86 | COc1ccc(Cn2c(SCc3ccc(C)cc3)nc3cc(OC)c(OC)cc3c2=N)cc1Cl | 14.6%
87 | COc1ccc(/C(C)=N/NC(=O)CNC(=O)c2ccco2)cc1 | 6.26%
88 | CCOc1ccc(N(C)S(=O)(=O)c2cc(-c3cc(C)no3)ccc2C)cc1 | 8.58%
89 | Cc1cc2occ(CC(=O)N(C)CC(=O)Nc3ccccc3Cl)c2cc1C | -3.06%
90 | CN1CCN(C(=O)c2ccccc2NC(=O)c2ccccc2Br)CC1 | -7.98%
